# Whole data set: some 33,000 sequences, median “E-score (-0.5 to 0.5)” near -0.032, cut for the highest 2% near 0.36. The list shows a part of the results.
# Biological target: T1, Sko1 (UniProt Q02100)
# T1 sequence: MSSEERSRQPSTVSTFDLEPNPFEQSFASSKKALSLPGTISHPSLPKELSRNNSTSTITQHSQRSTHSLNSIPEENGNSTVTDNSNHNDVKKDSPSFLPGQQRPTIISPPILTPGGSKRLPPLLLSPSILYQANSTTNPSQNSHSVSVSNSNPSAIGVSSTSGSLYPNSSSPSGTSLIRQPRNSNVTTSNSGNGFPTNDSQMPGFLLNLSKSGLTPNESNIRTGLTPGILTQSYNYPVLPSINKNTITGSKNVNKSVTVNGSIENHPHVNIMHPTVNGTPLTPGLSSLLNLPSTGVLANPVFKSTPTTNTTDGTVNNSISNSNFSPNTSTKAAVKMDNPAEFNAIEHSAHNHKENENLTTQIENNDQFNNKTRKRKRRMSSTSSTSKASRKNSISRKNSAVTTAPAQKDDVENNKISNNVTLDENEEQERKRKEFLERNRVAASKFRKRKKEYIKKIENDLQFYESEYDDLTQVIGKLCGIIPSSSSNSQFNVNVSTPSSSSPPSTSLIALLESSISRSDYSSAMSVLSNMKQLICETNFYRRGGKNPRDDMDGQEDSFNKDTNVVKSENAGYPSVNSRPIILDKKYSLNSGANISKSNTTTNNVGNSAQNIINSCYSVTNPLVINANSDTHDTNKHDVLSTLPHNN
# Experiment: PBM E-score (8-mer binding enrichment) (E-score (-0.5 to 0.5)); higher = stronger / more preferred TF binding; most listed sequences are background and not binding sites
# Details: protein concentration: 200 nM; construct: GST-full length
# How it was run: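 Detection of bound protein used fluorescent anti-GST, with scans normalised by masliner. The proteins were GST-tagged yeast transcription factors applied at about 100-200 nM to universal all-10-mer Agilent arrays made double-stranded by primer extension. Each ungapped eight-base word, pooled with its reverse complement, was scored with an E-score from the Universal PBM Analysis Suite.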
row,Sequence,PBM E-score
1,ACGTTTAT,0.388
2,AGCAGACG,-0.12
3,GTCTTTGA,0.066
4,CCACGATC,0.141
5,GATGAGGA,-0.0131
6,AGGCGTTC,-0.217
7,ATTCGAGC,0.107
8,GTATGAAA,0.211
9,TATAGACA,0.0561
10,GGATTGAA,0.0807
11,GGGGGTAA,-0.183
12,ACAGGGTA,-0.108
13,AAGTAACG,0.0665
14,GGGGGGGA,-0.38
15,AAGTTAGT,0.102
16,GGGGACAA,-0.194
17,CACGAGTA,0.0469
18,AACTACTG,-0.131
19,GAATACGA,0.259
20,TCACATGA,0.135
21,ATGGATAG,-0.0813
22,ATAGACAA,0.108
23,AGTTGCGC,-0.102
24,AACAGGGT,-0.192
25,CCCCTGCC,-0.196

row,Sequence,PBM E-score
1,ATAGCCTA,-0.0632
2,ATAACGGA,0.0991
3,AGGCTTAT,-0.0415
4,GTCTTAGA,0.0308
5,CGTGCAAC,0.0822
6,AATACAGG,-0.0789
7,GCTGCTAA,-0.197
8,GTTGGCTA,-0.108
9,ACGCGCCC,0.00867
10,AACAGATC,0.0098
11,GGGTTACC,-0.211
12,CCATTATC,0.0338
13,CCAGTCCG,-0.352
14,TAATCAGA,0.0523
15,CATTTCAC,-0.00575
16,GCCCTCAC,-0.217
17,CTCCGCAC,-0.165
18,CATCTGCC,-0.292
19,AACTGCTC,-0.113
20,CCTGGGGC,-0.371
21,ACATGAAT,0.229
22,CGCTCTCC,-0.163
23,CCCCTCCA,-0.144
24,ACGATGGG,-0.0319
25,CTATAACA,-0.0202

row,Sequence,PBM E-score
1,AGATTCCC,-0.101
2,ATACGCGG,-0.00698
3,AGGGACTG,-0.281
4,ACGATTAG,0.198
5,GTGTTTAA,0.0721
6,GCAAAAGA,-0.131
7,ATAGCCCG,-0.199
8,AAGTGATT,0.0606
9,ATTCCTCC,-0.111
10,CTAACGAA,0.0318
11,GGGTGAAC,-0.114
12,CTGTTCGA,-0.13
13,ATAGACCG,-0.0315
14,CTGTTGCC,-0.307
15,GACTTTTA,0.0964
16,CTTCGCTC,-0.0824
17,GGTTAATA,-0.01
18,CAGCTGGG,-0.308
19,CTGCCGTC,-0.12
20,GAAATCCA,0.0564
21,AGACTACC,-0.0734
22,ATCAAACC,0.0551
23,GCATAGCC,-0.157
24,AACGAGTA,0.0927
25,CGTGGATA,0.0696

row,Sequence,PBM E-score
1,AGCACACT,-0.0868
2,AAGCGGTC,-0.2
3,ATCCAGTC,-0.13
4,GCGGTACA,-0.112
5,ACGTTCAG,0.0463
6,ATCAGATC,-0.0621
7,CAATTGTA,0.00515
8,ACAACCCC,-0.221
9,GATGGTAC,-0.0113
10,CCTTAGCC,-0.207
11,TCTAAAGA,0.101
12,ACGGGCAC,-0.112
13,AACCTTAT,-0.164
14,ACTCCGGA,0.0861
15,CCAGTCAA,-0.146
16,AACGGATA,0.151
17,AATAGATC,0.0397
18,CGCGAGGC,-0.172
19,ATGCGAAT,0.103
20,AATAATGA,0.182
21,GAAAATGA,0.17
22,AGACCAAG,-0.0941
23,ACCGGTAC,-0.232
24,GAATGCAA,0.0942
25,CGATAAGC,-0.219

row,Sequence,PBM E-score
1,TGGAGGAA,-0.201
2,AGATAGGG,-0.14
3,CGATTCTA,-0.0581
4,CTGCCAAA,0.0757
5,CTACCGCC,-0.293
6,AAAAGTCC,-0.0224
7,AAGAAGGT,-0.0729
8,AGTCCACT,-0.213
9,AGAAGGCC,-0.163
10,AAGAACGG,-0.289
11,AAGTCATC,0.0763
12,ATTGCAAG,-0.0657
13,AAGGCTAT,-0.15
14,AGGCAGAA,-0.0954
15,CCCGAAAG,-0.114
16,CATGTGGC,-0.0269
17,AGATCACA,-0.0686
18,CTAGCCGC,-0.185
19,CCACTTAC,0.173
20,AGAGATCC,-0.156
21,GGCGCGCC,-0.112
22,ACTACAAT,0.172
23,ATAACACG,0.172
24,ATTTCCCA,0.118
25,AGGCATCC,-0.169

row,Sequence,PBM E-score
1,GGAAGTTA,0.0161
2,AATCAAAC,0.229
3,GGTTCATA,0.0132
4,CCCCCCGG,-0.226
5,CTGTGAAG,-0.221
6,CGAACAGC,0.01
7,CCTGTTAC,0.184
8,CCCTGTGA,-0.0284
9,CGATCTAC,0.133
10,GTTGCTAA,0.143
11,CCAACAGG,-0.213
12,CTATATAC,0.34
13,ACCTGATA,0.0213
14,CCCGTTCA,-0.253
15,AAAGGGGG,-0.239
16,TTGACAAA,0.233
17,ACAATCGT,0.168
18,GGTACTAA,0.148
19,GTGGCTAA,0.0152
20,ACGATCCC,-0.175
21,CCAAGCGG,-0.364
22,AGAGCAAG,-0.0916
23,ACACGAGT,-0.0245
24,GCGGTATA,-0.0701
25,CGTCCATA,0.197

row,Sequence,PBM E-score
1,GGCCACCA,0.0382
2,CGGAATTA,0.174
3,GGATGCGA,-0.213
4,CTTATCAC,0.108
5,ACCCTATA,-0.179
6,ATTCCATC,0.122
7,AGGAAACT,-0.179
8,CGGGCGGA,-0.312
9,AAAGATAA,0.309
10,GGCCTTAC,-0.0707
11,CAGGACCG,-0.217
12,CTACAGGA,-0.0238
13,AAATGATC,0.0628
14,CGGGCTCC,-0.343
15,CGTGTGTC,0.308
16,ATGCTTCG,0.0182
17,GCCAATTA,0.0275
18,ACGTTTAG,0.355
19,ACAGGATC,-0.228
20,CTCACGTC,0.278
21,AAAATATG,0.131
22,GAAACGAA,0.115
23,CGGGACTA,-0.306
24,CCCAATTA,-0.00491
25,CCACATGA,-0.0316

row,Sequence,PBM E-score
1,GAAGTGAC,0.215
2,CGAAGGGC,-0.104
3,CGACCTCG,-0.147
4,ACAATAAT,0.136
5,TCACGAGA,0.0525
6,CACTCCTG,-0.229
7,ACTGAAGC,0.061
8,GCACCAGA,-0.0638
9,CCGCTTTC,-0.206
10,AGCCGCAA,-0.318
11,GGGCTTCA,-0.264
12,ATAGTCAG,0.0782
13,CAAACGCG,0.191
14,ATTACCTC,0.135
15,AACGCGAC,0.0562
16,GCGTTAGA,0.0686
17,AATTAACG,0.224
18,ATGCAAAG,0.0207
19,AATGCACT,0.0553
20,TGCCGACA,-0.0916
21,TACAAGCA,0.0786
22,CCATTGTA,0.119
23,ACGTATAT,0.453
24,CCCGAAAC,-0.00638
25,ATCTGGTC,-0.136

row,Sequence,PBM E-score
1,GACAAACA,0.107
2,TGATGCAA,0.239
3,ACCCGGAA,-0.115
4,CAAAATTC,0.176
5,CATCCCCG,-0.21
6,TATTTAGA,0.124
7,GTCTAGAA,0.0588
8,CTGAAGGC,-0.0443
9,ATGATAGC,0.191
10,AAGAATTA,0.217
11,GAAAGTCA,0.0579
12,AAAGCCCA,0.0234
13,GCTTACGA,0.238
14,GTAATAGA,0.212
15,ATTCTAAC,-0.0194
16,AAAGAAAA,0.187
17,CGTCTCAA,0.198
18,CCCCTTAC,-0.11
19,AATTTACA,0.206

# From the supplement of paper PMC3334620
